Experimental data reported in the supplement of paper PMC4604168 (melanoma cell lines).
The other results are listed elsewhere or left out. Many values rest on one well or one pass, so single values are uncertain.

How the values were obtained:
Assay in all cases: cell count relative to DMSO control; melanoma cells; higher = more viable cells
Settings in all cases: library dose: low library concentration; 72 h
MZ2-MEL = system: MZ2-MEL
MeWo = system: MeWo
RPMI7951 = system: RPMI7951
RVH-421 = system: RVH-421
SkMel28 = system: SkMel28
SkMel2 = system: SkMel2
SkMel30 = system: SkMel30
SkMel5 = system: SkMel5
UACC257 = system: UACC257
UACC62 = system: UACC62
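Further: cell number obtained by counting DAPI-stained nuclei in high-throughput microscope images with image analysis software, screen run in 1,536-well plates.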

| SMILES | cell count (MZ2-MEL) | cell count (MeWo) | cell count (RPMI7951) | cell count (RVH-421) | cell count (SkMel28) | cell count (SkMel2) | cell count (SkMel30) | cell count (SkMel5) | cell count (UACC257) | cell count (UACC62) |
| --- | --- | --- | --- | --- | --- | --- | --- | --- | --- | --- |
| Cn1nnc2c(C(N)=O)ncn2c1=O [temozolomide] + O=C(O)c1ccc(-c2c[nH]c3ncc(-c4ccccc4)cc23)cc1C1CCCC1 [GSK650394] (first compound 2 µM, partner dose 0.16 µM) | 76.7% | 90.3% | 94.1% | 96.7% | 74.8% | 93.9% | 69.3% | 110% | 122% | 79.9% |
| O=C(O)[C@@H]1[O][Sb](=[O])([O][Sb]2(=[O])[O][C@H]([C@H](O)CO)[C@H](O)[C@H](C(=O)O)[O]2)[O][C@H]([C@H](O)CO)[C@@H]1O (stereo not given in full) [stibogluconate] + COc1cc2c(Oc3ccc4[nH]c(C)cc4c3F)ncnc2cc1OCCCN1CCCC1 [cediranib] (first compound 2 µM, partner dose 0.4 µM) | 98.9% | 90.7% | 114% | 90.4% | 83% | 95.9% | 103% | 88.2% | 70.9% | 108% |
| O=C(O)c1ccc2c(c1)nc(Nc1cccc(Cl)c1)c1ccncc12 + OCCn1cc(-c2cnc3nnn(Cc4ccc5ncccc5c4)c3n2)cn1 [PF04217903] (first compound 0.4 µM, partner dose 1 µM) | 99.3% | 97.7% | 129% | 117% | 104% | 106% | 93.1% | 104% | 103% | 108% |
| Cn1nnc2c(C(N)=O)ncn2c1=O [temozolomide] + C=CCn1c(=O)c2cnc(Nc3ccc(N4CCN(C)CC4)cc3)nc2n1-c1cccc(C(C)(C)O)n1 [MK1775] (first compound 2 µM, partner dose 0.02 µM) | 87.5% | 96.7% | 95.8% | 93.3% | 63.5% | 103% | 81.8% | 94.5% | 93% | 67% |
| O=C(O)[C@@H]1[O][Sb](=[O])([O][Sb]2(=[O])[O][C@H]([C@H](O)CO)[C@H](O)[C@H](C(=O)O)[O]2)[O][C@H]([C@H](O)CO)[C@@H]1O (stereo not given in full) [stibogluconate] + CCN(CC)CCCCNc1ncc2cc(-c3cc(OC)cc(OC)c3)c(NC(=O)NC(C)(C)C)nc2n1 [PD173074] (first compound 2 µM, partner dose 0.1 µM) | 93.9% | 101% | 99% | 107% | 113% | 96.7% | 94.6% | 105% | 98.5% | 104% |
| O=C(O)c1ccc2c(c1)nc(Nc1cccc(Cl)c1)c1ccncc12 + CC(C)(C)c1cnc(CSc2cnc(NC(=O)C3CCNCC3)s2)o1 [SNS-032] (first compound 0.4 µM, partner dose 0.01 µM) | 88.8% | 96.8% | 77.3% | 108% | 92.5% | 103% | 108% | 110% | 80.4% | 85.2% |
| O=C(Nc1cc(C(F)(F)F)cc(C(F)(F)F)c1)c1cc(Cl)ccc1O + CO[C@@H]1[C@H](N(C)C(=O)c2ccccc2)C[C@H]2O[C@]1(C)n1c3ccccc3c3c4c(c5c6ccccc6n2c5c31)C(=O)NC4 [Midostaurin] (first compound 0.016 µM, partner dose 0.08 µM) | 92.4% | 85.7% | 85.9% | 96.2% | 85.9% | 83.3% | 109% | 77.3% | 71.7% | 80.7% |
| O=C(O)[C@@H]1[O][Sb](=[O])([O][Sb]2(=[O])[O][C@H]([C@H](O)CO)[C@H](O)[C@H](C(=O)O)[O]2)[O][C@H]([C@H](O)CO)[C@@H]1O (stereo not given in full) [stibogluconate] + NCC(=O)Nc1ccc(-n2nc(C(F)(F)F)cc2-c2ccc3c(ccc4ccccc43)c2)cc1 [OSU03012] (first compound 2 µM, partner dose 1 µM) | 98.4% | 72.2% | 111% | 95.2% | 85.5% | 99.4% | 65.8% | 88.8% | 115% | 101% |
| Cn1nnc2c(C(N)=O)ncn2c1=O [temozolomide] + Cc1cc(N2CCOCC2)cc2[nH]c(-c3c(NC[C@@H](O)c4cccc(Cl)c4)cc[nH]c3=O)nc12 [BMS536924] (first compound 2 µM, partner dose 0.2 µM) | 85.6% | 95.8% | 100% | 87.4% | 76.4% | 94% | 82.1% | 95.9% | 94.6% | 84.2% |
| Cn1nnc2c(C(N)=O)ncn2c1=O [temozolomide] + COc1cc2c(Oc3ccc4[nH]c(C)cc4c3F)ncnc2cc1OCCCN1CCCC1 [cediranib] (first compound 2 µM, partner dose 0.4 µM) | 91.3% | 103% | 101% | 74.2% | 72.7% | 106% | 95.6% | 93.3% | 103% | 62.7% |
| Cn1nnc2c(C(N)=O)ncn2c1=O [temozolomide] + NC(=O)Nc1cc(-c2cccc(F)c2)sc1C(=O)N[C@H]1CCCNC1 [AZD7762] (first compound 2 µM, partner dose 0.02 µM) | 91.2% | 114% | 115% | 122% | 106% | 122% | 63.3% | 105% | 117% | 80.8% |
| O=C(O)[C@@H]1[O][Sb](=[O])([O][Sb]2(=[O])[O][C@H]([C@H](O)CO)[C@H](O)[C@H](C(=O)O)[O]2)[O][C@H]([C@H](O)CO)[C@@H]1O (stereo not given in full) [stibogluconate] + O=C(Nc1cccc(Cl)c1)Nc1ncc(CCNc2ncnc3ccsc23)s1 [SNS314] (first compound 2 µM, partner dose 0.0008 µM) | 109% | 105% | 118% | 123% | 104% | 110% | 94.8% | 108% | 99.1% | 87.5% |
| O=C(O)[C@@H]1[O][Sb](=[O])([O][Sb]2(=[O])[O][C@H]([C@H](O)CO)[C@H](O)[C@H](C(=O)O)[O]2)[O][C@H]([C@H](O)CO)[C@@H]1O (stereo not given in full) [stibogluconate] + Cc1cc(N2CCOCC2)cc2[nH]c(-c3c(NC[C@@H](O)c4cccc(Cl)c4)cc[nH]c3=O)nc12 [BMS536924] (first compound 2 µM, partner dose 0.2 µM) | 111% | 87.2% | 122% | 126% | 103% | 89.9% | 95% | 87% | 92.2% | 89.5% |
| O=C(O)c1ccc2c(c1)nc(Nc1cccc(Cl)c1)c1ccncc12 + COc1cc(N2CCC(N3CCN(C)CC3)CC2)ccc1Nc1ncc(Cl)c(Nc2ccccc2S(=O)(=O)C(C)C)n1 [NVP-TAE684] (first compound 0.4 µM, partner dose 0.08 µM) | 88.6% | 83% | 114% | 126% | 103% | 101% | 87.1% | 114% | 85.9% | 89.1% |
| O=C(O)[C@@H]1[O][Sb](=[O])([O][Sb]2(=[O])[O][C@H]([C@H](O)CO)[C@H](O)[C@H](C(=O)O)[O]2)[O][C@H]([C@H](O)CO)[C@@H]1O (stereo not given in full) [stibogluconate] + CC(C)CCN1c2nc(Nc3cc(F)c(O)c(F)c3)ncc2N(C)C(=O)C1C [BID1870] (first compound 2 µM, partner dose 0.2 µM) | 110% | 110% | 103% | 136% | 104% | 98.2% | 94.8% | 105% | 89.2% | 88.7% |
| O=C(Nc1cc(C(F)(F)F)cc(C(F)(F)F)c1)c1cc(Cl)ccc1O + CCc1ccc(CCOc2ccc(CC3SC(=O)NC3=O)cc2)nc1 [pioglitazone] (first compound 0.016 µM, partner dose 2 µM) | 90.4% | 104% | 98% | 99.2% | 96.8% | 104% | 91.2% | 100% | 88.2% | 79% |
| O=C(Nc1cc(C(F)(F)F)cc(C(F)(F)F)c1)c1cc(Cl)ccc1O + COc1cc(N2CCC(N3CCN(C)CC3)CC2)ccc1Nc1ncc(Cl)c(Nc2ccccc2S(=O)(=O)C(C)C)n1 [NVP-TAE684] (first compound 0.016 µM, partner dose 0.08 µM) | 97.1% | 94.5% | 88.8% | 91.6% | 81.3% | 90.7% | 82.1% | 87.7% | 78.8% | 85.1% |
| O=C(Nc1cc(C(F)(F)F)cc(C(F)(F)F)c1)c1cc(Cl)ccc1O + CC1(C)NC(=O)N(c2ccc([N+](=O)[O-])c(C(F)(F)F)c2)C1=O [nilutamide] (first compound 0.016 µM, partner dose 1 µM) | 103% | 95.1% | 99.7% | 106% | 107% | 97.2% | 99.4% | 87.5% | 89.6% | 91.2% |
| O=C(O)[C@@H]1[O][Sb](=[O])([O][Sb]2(=[O])[O][C@H]([C@H](O)CO)[C@H](O)[C@H](C(=O)O)[O]2)[O][C@H]([C@H](O)CO)[C@@H]1O (stereo not given in full) [stibogluconate] + Cc1cc([N+](=O)[O-])ccc1NS(=O)(=O)c1cc(Cl)ccc1Cl [FH535] (first compound 2 µM, partner dose 1 µM) | 92.6% | 102% | 118% | 111% | 88.8% | 100% | 86.2% | 81.3% | 91.2% | 97.8% |
| O=C(O)c1ccc2c(c1)nc(Nc1cccc(Cl)c1)c1ccncc12 + CC(C)CCN1c2nc(Nc3cc(F)c(O)c(F)c3)ncc2N(C)C(=O)C1C [BID1870] (first compound 0.4 µM, partner dose 0.2 µM) | 87.5% | 68.4% | 94.8% | 110% | 89% | 81.8% | 77.2% | 81.4% | 71.3% | 92.3% |
| O=C(O)[C@@H]1[O][Sb](=[O])([O][Sb]2(=[O])[O][C@H]([C@H](O)CO)[C@H](O)[C@H](C(=O)O)[O]2)[O][C@H]([C@H](O)CO)[C@@H]1O (stereo not given in full) [stibogluconate] + CCCCCCCCCCCC1=C(O)C(=O)C=C(O)C1=O [Embelin] (first compound 2 µM, partner dose 1.2 µM) | 104% | 110% | 92.9% | 107% | 103% | 102% | 105% | 98.1% | 113% | 98.3% |
